We go through 172 sequences from article PMC10668032.

The list shows a part of the results. At the low end of the ranking the order means little.

This assay concerns the target SIX1 homeodomain (reference allele) (UniProt Q15475). Nature of the assay: universal protein binding microarray. The note with it: Universal all-10-mer PBM (8x60K, AMADID 030236), 300 nM GST-tagged protein, Alexa Fluor 488 anti-GST; buffer, salt, pH and temperature not stated; high values mean tight binding; most listed sequences are background and not binding sites; double strand, one strand shown.
For ACGTCAGA, the binding signal is -0.114 E-score.
For ATTGGCTG the value was -0.204 E-score; for GATGTCAA, -0.111 E-score; for ATAGTCCC, 0.0289 E-score.
CACAACGG: the binding signal is -0.0757 E-score.
Turning to GCCTATCC, the binding signal was determined as 0.267 E-score.
To GAAGTTAA belongs -0.162 E-score; to ACTCAAAG, -0.191 E-score; to CAAACGTA, -0.00932 E-score.
To AGCCTCAT belongs -0.0751 E-score.
Turning to CAATCAAA, the binding signal is -0.199 E-score.
To GTCAAGTA belongs -0.134 E-score.
On to GCAATCGC, for which the binding signal was -0.145 E-score.
To ACTCTATA belongs 0.117 E-score; to ACTCAATG, 0.109 E-score; to AACTCTAA, -0.00439 E-score.
To CGTTACAC belongs -0.0126 E-score; to CGCGACCA, -0.0994 E-score; to GAGTTGCA, 0.0195 E-score.
Regarding ATAACCGC, the binding signal worked out at 0.138 E-score.
As for TCATATGA, the binding signal stood at 0.303 E-score.
CGATTACG: the binding signal amounted to 0.00347 E-score.
To GAAACTCA belongs -0.261 E-score; to AAAAATGG, -0.194 E-score; to ACAATACA, 0.125 E-score.
As for GTCTTAAA, the binding signal was -0.0745 E-score.
To CGGAGCGC belongs -0.216 E-score.
For AGGGCCGG the value was -0.0303 E-score.
To ATTTCTCG belongs 0.00262 E-score; to CTCGTATC, 0.367 E-score; to GATCTAAA, 0.0697 E-score.
On to CCCTCTTC, for which the binding signal was -0.0381 E-score.
Turning to AAAGTCTC, the binding signal was -0.231 E-score.
To GGAGGACC belongs -0.205 E-score.
For CAACGGTC the value was -0.224 E-score; for TATGTACA, 0.139 E-score; for AAGACAAT, -0.307 E-score.
As to ACTTGTTA, the binding signal is -0.0516 E-score.
As for CCACGCTC, the binding signal is -0.138 E-score.
For AGGAATGA the value was 0.141 E-score.
Take AGGAAATA: the binding signal is -0.0922 E-score.
For AGCCCACT the value was -0.0545 E-score.
With GACAGTAC, the binding signal is -0.073 E-score.
To GCTCGAAA belongs -0.0875 E-score; to GTAGACAC, 0.182 E-score.
To ATCCTACC belongs 0.299 E-score; to ATTCCGGC, -0.0584 E-score; to CGTCCTAA, -0.0808 E-score.
To ACTACGCA belongs -0.205 E-score; to GCTCGAAC, -0.254 E-score; to AACTGATG, -0.147 E-score.
Regarding GCTATGCC, the binding signal was -0.212 E-score.
AAGACCCC: the binding signal is -0.0381 E-score.
For AGCGCTCG the value was -0.189 E-score; for GCGGAACC, -0.0447 E-score.
Turning to AGTACACA, the binding signal was determined as 0.0588 E-score.
In the case of ACAAGAAG, the binding signal was -0.0225 E-score.
For AGCCCCTA the value was 0.153 E-score; for AACGCGTC, -0.231 E-score; for GGTAGCAC, -0.0453 E-score.
Regarding CCCTGAGA, the binding signal turned out to be 0.116 E-score.
For the sequence CCCCCGGC, the binding signal is -0.0802 E-score.
Take GTAAGAAC: the binding signal is -0.0503 E-score.
For the sequence GTCTCCGA, the binding signal was -0.0094 E-score.
For CGACCCGA the value was 0.189 E-score; for AGTTGCAG, -0.0903 E-score; for ATCCCCAT, 0.295 E-score.
As to CCCGCAGG, the binding signal is -0.073 E-score.
For AGGTCCAT the value was -0.175 E-score; for CGCTGATC, 0.279 E-score; for AGCGAGGC, -0.0637 E-score.
As for AGATTTAA, the binding signal was -0.0172 E-score.
For CCGCATAA the value was 0.172 E-score.
For ACTAGGCT the value was 0.0286 E-score; for CCCCGCAC, 0.189 E-score; for CTAGTGAA, -0.165 E-score.
As for CCGCATCG, the binding signal turned out to be 0.153 E-score.
To GGCGACTA belongs -0.0635 E-score.
Take AGTTTAAG: the binding signal is -0.286 E-score.
For CGTCTGAC the value was -0.0289 E-score.
For CCATCGGA, the binding signal was determined as 0.0092 E-score.
Take AAGGGAGA: the binding signal came out at 0.0674 E-score.
To ACTGCGTG belongs -0.0913 E-score; to GCCGCAGA, -0.121 E-score; to ATCGACAG, 0.0865 E-score.
For AGGGAACG the value was -0.238 E-score; for ACCGGCCG, 0.0327 E-score.
As to AGATCTGG, the binding signal was found to be 0.221 E-score.
For AATCGAGC the value was -0.126 E-score; for CATTGAGC, -0.222 E-score.
Turning to AAAGAGCC, the binding signal is -0.249 E-score.
AAGAAATT: the binding signal is -0.302 E-score.
For GCTCCCAC the value was -0.169 E-score; for CAAGAGCA, -0.175 E-score; for CATTTGCA, -0.0443 E-score.
As to AATCCGGT, the binding signal is 0.252 E-score.
Take ACGAGGCT: the binding signal was -0.0928 E-score.
To TCGGCCAA belongs -0.204 E-score; to CATCGATA, 0.308 E-score.
Regarding GACGCGCC, the binding signal is -0.0316 E-score.
Consider GGACCACC, for which the binding signal is -0.00528 E-score.
As to AGCCGCCG, the binding signal was -0.134 E-score.
Turning to GAATAGAC, the binding signal is -0.147 E-score.
For CGTAATAA the value was -0.0069 E-score; for CCTTTACG, 0.0121 E-score.
In the case of GTCATTTA, the binding signal is 0.0488 E-score.
For GATTGTTA the value was 0.0648 E-score; for AAATATGG, 0.0106 E-score.
For AAGCAATG the value was -0.00951 E-score; for CGTCCGGC, -0.0156 E-score.
With GCCCAGCC, the binding signal was -0.0883 E-score.
For CCAGAACA the value was -0.0153 E-score; for GAGTGAGC, 0.00749 E-score.
To GTTTAGTA belongs -0.0929 E-score.
To CCGCGTTC belongs 0.0464 E-score.
Consider AAGCCGTG, for which the binding signal was -0.0841 E-score.
To CCTAGGAG belongs -0.115 E-score; to CTAATCGC, 0.076 E-score.
On to CAATGAAA, for which the binding signal stood at 0.035 E-score.
With AGAGGGCC, the binding signal is -0.209 E-score.
For the sequence GCTGGGAA, the binding signal was -0.0626 E-score.
To AATACTTC belongs 0.2 E-score; to AATATGAC, 0.145 E-score.
AAAAAAAG: the binding signal is -0.198 E-score.
On to GCTCAGCC, for which the binding signal is -0.118 E-score.
For ACGTACTA the value was 0.0776 E-score; for CTCTGGAC, -0.168 E-score; for ACAATACG, 0.25 E-score.
In the case of CCATTCAA, the binding signal was -0.0832 E-score.
As to ATCATTCG, the binding signal was determined as 0.294 E-score.
To GCGCATAC belongs -0.083 E-score; to CCTCTACG, 0.12 E-score.
As for CACCCAAA, the binding signal was determined as 0.0136 E-score.
Consider ACATAGCC, for which the binding signal is 0.087 E-score.
To TCCCAGAA belongs -0.0683 E-score; to AGACAAAA, -0.298 E-score.
As for ACAGACAG, the binding signal is -0.034 E-score.
For TACGGCCA the value was -0.104 E-score.
To CCCAACTC belongs -0.0741 E-score; to AAGTCCAT, -0.125 E-score.
For CAGGTTAA, the binding signal is -0.0882 E-score.
As for ATTATAAG, the binding signal amounted to 0.0247 E-score.
In the case of CAAATACC, the binding signal is 0.0657 E-score.
To AGGCCTCG belongs -0.203 E-score; to AGCTCCAA, -0.157 E-score.
To CCCGTTAC belongs 0.0129 E-score; to GAATCTGA, 0.121 E-score.
Consider AATGTTTC, for which the binding signal is -0.302 E-score.
Turning to AAGCGCGG, the binding signal was -0.146 E-score.
For CAAGCGGA the value was 0.14 E-score; for CGTTTCCC, -0.331 E-score.
To TCTGAAGA belongs -0.0225 E-score; to GAACCATC, -0.117 E-score.
In the case of ATGATGTG, the binding signal was -0.195 E-score.
In the case of ATGAATGG, the binding signal is -0.0943 E-score.
For CTATATAA the value was -0.0277 E-score; for CCGTGGCC, -0.169 E-score.
Turning to GGTATCAC, the binding signal amounted to 0.497 E-score.
Regarding GCTTCTCC, the binding signal is 0.0455 E-score.
For GTCGTAGA the value was -0.103 E-score; for CATCGGCG, -0.00146 E-score; for CACTGCGC, -0.17 E-score.
Take CGGGCGAA: the binding signal was -0.242 E-score.
For GGAATGTA the value was 0.0484 E-score.
In the case of GGAAGGCA, the binding signal is -0.24 E-score.
On to CACGAGGG, for which the binding signal is -0.0578 E-score.
To AACGTAAC belongs -0.152 E-score; to AAATTAGG, -0.199 E-score; to ATCGTACC, 0.217 E-score.
On to AAGAGTGA, for which the binding signal is -0.0741 E-score.
For GGTCGGCA the value was -0.0937 E-score; for CAGGAACC, -0.129 E-score.
